Some of the results follow. Many values rest on one well or one pass, so single values are uncertain.
What was measured:
Assay in all cases: cell count relative to DMSO control; melanoma cells; higher = more viable cells
Conditions in all cases: library dose: standard library concentration; 72 h
[1] = test system: G361
[2] = test system: IPC-298
[3] = test system: IST-MEL1
[4] = test system: LB2518-MEL
[5] = test system: LOXIMVI
[6] = test system: MEL-HO
[7] = test system: MZ2-MEL
[8] = test system: MeWo
[9] = test system: RPMI7951
[10] = test system: RVH-421
[11] = test system: SkMel28
[12] = test system: SkMel2
[13] = test system: SkMel30
[14] = test system: SkMel5
[15] = test system: UACC257
[16] = test system: UACC62
[17] = test system: WM115
[18] = test system: WM1716
[19] = test system: WM1745
[20] = test system: WM3526
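Note: cells treated in 1,536-well plates, then fixed and DAPI-stained, with nuclei counted from automated high-throughput microscope images.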

SMILES: O=C(O)c1ccc(-c2c[nH]c3ncc(-c4ccccc4)cc23)cc1C1CCCC1 + O=C(Nc1ccccc1)c1cc([N+](=O)[O-])ccc1Cl [GW9662] (first compound 0.8 µM, partner dose 10 µM)
- cell count [1]: 65.2%
- cell count [2]: 85.5%
- cell count [3]: 76%
- cell count [4]: 97.1%
- cell count [5]: 93.8%
- cell count [6]: 68.3%
- cell count [7]: 74.8%
- cell count [8]: 76.9%
- cell count [9]: 75.1%
- cell count [10]: 80%
- cell count [11]: 58.4%
- cell count [12]: 71%
- cell count [13]: 83.5%
- cell count [14]: 82%
- cell count [15]: 72.5%
- cell count [16]: 86.6%
- cell count [17]: 61.9%
- cell count [18]: 103%
- cell count [19]: 84.5%
- cell count [20]: 84.7%

SMILES: O=c1[nH]nc(Sc2ncc([N+](=O)[O-])s2)n1-c1ccc2c(c1)OCCO2 + Oc1cc(-c2nc(-c3ccccc3)[nH]c2-c2ccncc2)ccc1Cl [L779450] (first compound 1 µM, partner dose 1 µM)
- cell count [1]: 68.8%
- cell count [2]: 77.4%
- cell count [3]: 86.7%
- cell count [4]: 85.9%
- cell count [5]: 93.9%
- cell count [6]: 81.7%
- cell count [7]: 92.5%
- cell count [8]: 99.8%
- cell count [9]: 125%
- cell count [10]: 62.8%
- cell count [11]: 39%
- cell count [12]: 26.4%
- cell count [13]: 73.4%
- cell count [14]: 67.9%
- cell count [15]: 92.4%
- cell count [16]: 53.2%
- cell count [17]: 52.2%
- cell count [18]: 71.7%
- cell count [20]: 60.7%

SMILES: O=c1[nH]nc(Sc2ncc([N+](=O)[O-])s2)n1-c1ccc2c(c1)OCCO2 + COc1ccc2c(c1)CCC1C2CCC2(C)C(NCCCCCCN3C(=O)C=CC3=O)CCC12 [U73122] (first compound 1 µM, partner dose 2 µM)
- cell count [1]: 89.3%
- cell count [2]: 98.3%
- cell count [3]: 98%
- cell count [4]: 101%
- cell count [5]: 83.4%
- cell count [6]: 91.4%
- cell count [7]: 107%
- cell count [8]: 76.3%
- cell count [9]: 42.2%
- cell count [10]: 102%
- cell count [11]: 82.2%
- cell count [12]: 97.8%
- cell count [13]: 96.5%
- cell count [14]: 71.2%
- cell count [15]: 89.1%
- cell count [16]: 66.6%
- cell count [17]: 73.5%
- cell count [18]: 76.7%
- cell count [20]: 86.9%

SMILES: O=c1[nH]nc(Sc2ncc([N+](=O)[O-])s2)n1-c1ccc2c(c1)OCCO2 + Oc1nc(-c2ccc(C(F)(F)F)cc2)nc2c1CSCC2 [XAV939] (first compound 1 µM, partner dose 10 µM)
- cell count [1]: 88.6%
- cell count [2]: 89.7%
- cell count [3]: 99.4%
- cell count [4]: 78%
- cell count [5]: 90.6%
- cell count [6]: 84.6%
- cell count [7]: 85.3%
- cell count [8]: 80%
- cell count [9]: 70%
- cell count [10]: 113%
- cell count [11]: 93.7%
- cell count [12]: 106%
- cell count [13]: 88.9%
- cell count [14]: 76.8%
- cell count [15]: 83.7%
- cell count [16]: 87.6%
- cell count [17]: 79.8%
- cell count [18]: 33.7%
- cell count [20]: 104%

SMILES: COc1cc(Nc2ncc(F)c(Nc3ccc4c(n3)NC(=O)C(C)(C)O4)n2)cc(OC)c1OC [Tamatinib] + C=CCn1c(=O)c2cnc(Nc3ccc(N4CCN(C)CC4)cc3)nc2n1-c1cccc(C(C)(C)O)n1 [MK1775] (first compound 2 µM, partner dose 0.1 µM)
- cell count [1]: 72.2%
- cell count [2]: 74.3%
- cell count [4]: 82.4%
- cell count [5]: 25.9%
- cell count [6]: 62.9%
- cell count [7]: 81.6%
- cell count [8]: 67.1%
- cell count [9]: 34%
- cell count [10]: 88.7%
- cell count [11]: 57.7%
- cell count [12]: 78.9%
- cell count [13]: 90.9%
- cell count [14]: 64%
- cell count [15]: 76.2%
- cell count [16]: 66.8%
- cell count [17]: 71.3%
- cell count [18]: 64.5%
- cell count [19]: 37.6%
- cell count [20]: 66%

SMILES: O=c1[nH]nc(Sc2ncc([N+](=O)[O-])s2)n1-c1ccc2c(c1)OCCO2 + O=C(Nc1ccccc1)c1cc([N+](=O)[O-])ccc1Cl [GW9662] (first compound 1 µM, partner dose 10 µM)
- cell count [1]: 62.1%
- cell count [2]: 97.3%
- cell count [3]: 82.2%
- cell count [4]: 70.9%
- cell count [5]: 69.4%
- cell count [6]: 72.4%
- cell count [7]: 74.4%
- cell count [8]: 49.4%
- cell count [9]: 53.8%
- cell count [10]: 73.5%
- cell count [11]: 46.5%
- cell count [12]: 73.6%
- cell count [13]: 82%
- cell count [14]: 65.9%
- cell count [15]: 74%
- cell count [16]: 69.9%
- cell count [17]: 53%
- cell count [18]: 81%
- cell count [20]: 76.9%

SMILES: O=c1[nH]nc(Sc2ncc([N+](=O)[O-])s2)n1-c1ccc2c(c1)OCCO2 + Cn1cc(/C=C2\C(=O)Nc3cccnc32)c2ccccc21 [GW441756] (first compound 1 µM, partner dose 2 µM)
- cell count [1]: 90.5%
- cell count [2]: 82.3%
- cell count [3]: 98.3%
- cell count [4]: 74.4%
- cell count [5]: 103%
- cell count [6]: 91.8%
- cell count [7]: 94.4%
- cell count [8]: 103%
- cell count [9]: 82.1%
- cell count [10]: 106%
- cell count [11]: 77.8%
- cell count [12]: 108%
- cell count [13]: 91.5%
- cell count [14]: 70.6%
- cell count [15]: 94.2%
- cell count [16]: 97.6%
- cell count [17]: 117%
- cell count [18]: 90.8%
- cell count [20]: 92.6%

SMILES: O=c1[nH]nc(Sc2ncc([N+](=O)[O-])s2)n1-c1ccc2c(c1)OCCO2 + O=C(O)C(=O)Nc1sc2c(c1C(=O)O)CCNC2 [TCS401] (first compound 1 µM, partner dose 8.33333 µM)
- cell count [1]: 108%
- cell count [2]: 94.9%
- cell count [3]: 99%
- cell count [4]: 90.8%
- cell count [5]: 96.6%
- cell count [6]: 93%
- cell count [7]: 102%
- cell count [8]: 106%
- cell count [9]: 93.6%
- cell count [10]: 104%
- cell count [11]: 75.4%
- cell count [12]: 97.6%
- cell count [13]: 145%
- cell count [14]: 96.7%
- cell count [15]: 85.7%
- cell count [16]: 104%
- cell count [17]: 78.5%
- cell count [18]: 88%
- cell count [20]: 90.1%

SMILES: O=c1[nH]nc(Sc2ncc([N+](=O)[O-])s2)n1-c1ccc2c(c1)OCCO2 + Nc1nc(F)nc2c1ncn2[C@@H]1O[C@H](CO)[C@@H](O)[C@@H]1O [fludarabine] (first compound 1 µM, partner dose 1 µM)
- cell count [1]: 80.4%
- cell count [2]: 83%
- cell count [3]: 78.2%
- cell count [5]: 84.7%
- cell count [6]: 91.2%
- cell count [8]: 90.3%
- cell count [9]: 75.9%
- cell count [10]: 93.5%
- cell count [11]: 3.19%
- cell count [12]: 1.17%
- cell count [13]: 14.9%
- cell count [14]: 43.8%
- cell count [15]: 32.3%
- cell count [16]: 60.1%
- cell count [17]: 99.2%
- cell count [18]: 103%
- cell count [19]: 77.9%
- cell count [20]: 26.3%

Reference: the supplement of paper PMC4604168 (melanoma cell lines)
